# From PubChem BioAssay AID1963576 (National Center for Advancing Translational Sciences (NCATS), 2024)
# The whole screen tested about 46,000 compounds, of which about 60 (0.1%) were called active. Inconclusive results (about 3%) are left out. Calls come from the whole dose curve; as a rule, active = well fitted inhibition curve with a large enough effect; inconclusive = small, poorly fitted or top-dose-only effect; inactive = no such curve, though single readings can be large or run the other way. Some of the results follow.
# Test: Primary qHTS assay for Inhibitors of ovarian cancer metastasis using an organotypic tumor microenvironment (TME) model. Note: nearly all actives have a fitted effect of over 65% in size.
# Conditions: SKOV3ip1-GFP adhesion/invasion on 3D omental model, fluorescence; series mostly up to 45.8 µM; activity change, negative = inhibition: at the top concentration
# From the text: PI: Ernst Lengyel MD., Ph.D. Department of Obstetrics and Gynecology, Section of Gynecologic Oncology University of Chicago Medicine, Chicago, Illinois. The tumor microenvironment (TME) is a key determinant of metastatic efficiency. We performed a quantitative high-throughput screen (qHTS) of diverse medicinal chemistry tractable scaffolds (44,420 compounds) and pharmacologically active small molecules (386 compounds) using a layered organotypic, robust assay representing the ovarian cancer metastatic TME. This 3D model contains primary human mesothelial cells, fibroblasts, and extracellular matrix, to which fluorescently labeled ovarian cancer cells are added. Initially, 100 compounds inhibiting ovarian cancer adhesion/invasion to the 3D model in a dose-dependent manner were identified. Of those, eight compounds were confirmed active in five high-grade serous ovarian cancer cell lines and were further validated in secondary in vitro and in vivo biological assays. […] Specifically, NCGC00117362 and PP-121 inhibited ovarian cancer adhesion, invasion, and proliferation, whereas milciclib inhibited ovarian cancer invasion and proliferation. […] To evaluate the clinical potential of NCGC00117362, structure - activity relationship studies were performed. […] The three compounds identified have promise as therapeutics for prevention and treatment of ovarian cancer metastasis.
# PROTOCOL TABLE (as described by Inglese J, Shamu CE and Guy RK. 2007) SEQUENCE No. (e.g., 1, 2, 3, etc.); […] (e.g., Cells, Incubation, Reagent, etc.); VALUE; DESCRIPTION. 1; Cells; 4 uL; primary human omental fibroblast, black, clear bottom, low base, 1536-well Aurora assay plate. 2; Incubation; 48 hr; 37C. 3; Cells; 3 uL; 1,200 SKOV3ip1-GFP cells. 4; Compounds; 23nL; acoustic dispenser. 5; Incubation; 2 hr; room temperature. 6; Incubation; 16 hr; 37C. 7; Wash; 5 uL; 1x PBS. 8; Fixing; 5 uL; 4% paraformaldehyde (PFA). 9; Incubation; 15 min; room temperature 10; Wash, 5 uL; 1x PBS. 11; Detection; Fluorescence, excitation filter 488 nm, emission filter 509 nm. NOTES (numbers refer to Sequence numbers above) 1. For the 1,536-well format, 40 primary human omental fibroblasts and 400 mesothelial cells were seeded with 0.02 µg fibronectin and 0.02 µg collagen type I in 4 µL of growth media (2.3 mm2; Supplementary Fig. S1A). 2. Assay plates were incubated for 48 hours at 37 C. 3. After incubation, 1,200 SKOV3ip1-GFP were seeded in 3 µL of serum-free media (growth media minus FBS) on top of primary human omental cells. 4. Compounds or controls were added to each well immediately after the addition of the cancer cells. Compounds were screened in four doses (0.36-46 µmol/L), and the plates contained the positive control (Tomatine) in eight doses (0.035-75 µmol/L) and DMSO (equal volume controls) 5 - 6. The plates were incubated at room temperature for 2 hours and then at 37 degrees C for 16 hours. 7 - 10. Following incubation, the media were aspirated and each well washed with PBS (5 µL) and then fixed with 4% paraformaldehyde (PFA; 5 µL). After 15 minutes, the PFA solution was aspirated, PBS (5 µL) was added. 11. The number of GFP-labeled cells analyzed using a fluorescent cytometer TTP LabTech Acumen eX3 using 488 nm excitation filter and 509 nm emission filter. Data was normalized to the DMSO treated for negative and Tomatine treated wells for positive control. REFERENCES: Inglese J, Shamu CE and Guy RK, Reporting data from high throughput screening of small molecule libraries, Nature Chemical Biology, 2007, 3(8): 438-441. doi.org/10.1038/nchembio0807-438. Yasgar A, Shinn P, Jadhav A, Auld DS, Michael S, Zheng W, Austin CP, Inglese J and Simeonov A, Compound Management for Quantitative High-Throughput Screening. J. Assoc. Lab. Auto., 2008, 13: 79-89. doi: 10.1016/j.jala.2007.12.004.
Structure (SMILES),"activity change, negative = inhibition",outcome
Cc1ccccc1NC(=O)c1nc(-c2ccncc2)no1,inactive: -7.24%,–
CCC(C(=O)OCc1cc(=O)n2nc(CCOC)sc2n1)c1ccccc1 (stereo not drawn),inactive: -8.7%,–
Cc1ccc(CNC(=O)CCCCn2c(=O)c3ccccc3n(Cc3ccc(Cl)cc3)c2=O)cc1,inactive: 23.1%,–
Cc1nc2sc(C(=O)NCc3ccc(Cl)cc3)c(NC(=O)c3ccccc3)c2c(C)c1C,inactive: -25.7%,–
CCOc1cc(C2c3c(oc4ccccc4c3=O)C(=O)N2Cc2ccc3c(c2)OCO3)ccc1O (stereo not drawn),inactive: 1.19%,–
Cc1ccc(-n2ncc(C(=O)Nc3ccc(C)c(F)c3)c2C2CCN(C(=O)OC(C)(C)C)CC2)cc1C,–,inactive
O=C(Nc1ccc2nc(SCC(=O)N3CCCC3)sc2c1)c1ccc(F)cc1,–,inactive
CN(C)CC(=O)N1CCC(c2ccc(NC(=O)c3ncc(C#N)[nH]3)c(C3=CCCCC3)c2)CC1,inactive: 7.47%,–
Cc1cc(C)c2c(=O)cc(C(=O)Nc3ccc(S(=O)(=O)Nc4nc(C)cc(C)n4)cc3)oc2c1,inactive: -6.61%,–
Cc1ccc(-c2cn3c(n2)sc2cc(C(=O)N4CCCCC4)ccc23)cc1,inactive: -1.17%,–
Cc1ccc(NC(=O)NCc2cccn2Cc2ccccc2)cc1F,inactive: 2.31%,–
COC(=O)C(C)Sc1nc2c([nH]c3ccccc32)c(=O)n1-c1ccc(OC)cc1 (stereo not drawn),inactive: -1.08%,–
COc1cc(Cl)c(C)cc1NC(=O)c1cn(CC(C)C)c(=O)c2cc(OC)c(OC)cc12,–,inactive
CCN(CC)C(=O)CSc1nc2cc3c(cc2c(=O)n1Cc1ccc(C(=O)NCCc2ccc(OC)c(OC)c2)cc1)OCO3,inactive: -5.47%,–
CCOc1ccccc1NC(=O)Cn1c(=O)n(Cc2ccccc2)c(=O)c2c(C)c(C(=O)N(C)C)sc21,inactive: 2.3%,–
Cc1cc(Nc2cccc(Cl)c2C)n2nc(Cc3ccccc3)nc2n1,inactive: -4.92%,–
COc1ccc(CNC(=O)CCCn2c(SCC(N)=O)nc3cc4c(cc3c2=O)OCO4)cc1,inactive: 4.55%,–
COc1cc(CN(CC2CCCO2)C(=O)c2ccccc2F)cc(OC)c1OC (stereo not drawn),–,inactive
Cc1cc(C)c(NC(=O)Cn2c(=O)n(CCCCC(=O)NCc3ccccc3Cl)c(=O)c3ccccc32)c(C)c1,inactive: 8.92%,–
COc1ccc(CNC(=O)c2cnn3c(C)c(Cc4ccc(F)cc4)c(C)nc23)cc1,inactive: 12.5%,–
CC(NC(=O)c1ccccc1)c1nc2ccccc2n1Cc1ccc(Cl)cc1 (stereo not drawn),–,inactive
CC(C)OCCCNC(=O)CCCn1c(SCC(=O)c2ccc(Br)cc2)nc2c(sc3ccccc32)c1=O,–,inactive
Cc1ccc(OCCSc2nc3ccccc3n2CC(=O)N2CCOCC2)c(C)c1,inactive: 0.842%,–
CCOc1ccc(NC(=O)CN2C(=O)COc3ccc(S(=O)(=O)Nc4ccccc4)cc32)cc1,–,inactive

Structure (SMILES),"activity change, negative = inhibition",outcome
Cc1ccc(Cl)cc1NC(=O)Cn1nc2c(cc1=O)CC(C)CC2 (stereo not drawn),inactive: 6.47%,–
COc1ccc(Cl)c(Cn2c(NCCN)nc3c2c(=O)n(C)c(=O)n3C)c1,inactive: -11.1%,–
COc1ccc(C(=O)NCc2nnnn2-c2ccc(C)c(C)c2)cc1,inactive: -3.45%,–
CC(C)Cn1c(=O)c2ccccc2n2c(-c3cccc(Cl)c3)nnc12,inactive: 6.98%,–
O=C(NNc1ncnc2c1cnn2-c1ccccc1)c1cccc(Cl)c1,inactive: -6.89%,–
CCC(=O)N1CCc2cc(Br)cc(S(=O)(=O)N3CCC(C(=O)NC(C)(C)C)CC3)c21,–,inactive
CCCOc1ccccc1Cn1c(=O)sc2ccccc21,inactive: 5.88%,–
Cc1ccc(Cl)cc1Nc1nc2ccccc2n2c(C)nnc12,inactive: 1.09%,–
Cc1ccnc(NC(c2ccccc2F)c2ccc3cccnc3c2O)c1 (stereo not drawn),–,inactive
CCc1ccccc1NC(=O)CSc1nnc(-c2nonc2NC(C)=O)n1C,inactive: 1.69%,–
CCOc1ccc(NC(=O)N2CCOc3ccccc32)cc1,inactive: -0.775%,–
N#Cc1ccc(-c2cccs2)nc1SCc1ccc(Cl)cc1Cl,inactive: 0.627%,–
Cc1ccc(N2CCn3c2nc2c3c(=O)n(CCc3ccccc3)c(=O)n2C)cc1C,inactive: 4%,–
CCOC(=O)c1ccc(NC(=O)CN2C(=O)c3cccnc3Oc3ccc(Cl)cc32)cc1,–,inactive
Cc1[nH]c(=O)[nH]c(=O)c1C1N2CC3(C(C)C)CN1CC(C(C)C)(C2)C3=O (stereo not drawn),inactive: 8.6%,–
Cc1cc(NS(=O)(=O)c2ccc(NC(=O)COc3ccc(Br)cc3C)cc2)no1,inactive: 0.627%,–
CCCCc1nn2c(=O)cc(COC(=O)c3ccccc3NC(=O)C(C)(C)C)nc2s1,inactive: 1.9%,–
CN(CCOc1ccc(NS(C)(=O)=O)cc1)CCc1ccc(NS(C)(=O)=O)cc1,inactive: -5.46%,–
O=c1c2oc3ccccc3c2n(Cc2ccc(Cl)cc2)c(=O)n1Cc1ccc2c(c1)OCO2,inactive: -3.59%,–
NC(=O)C1CCN(c2ncnc3c2cnn3-c2ccccc2)CC1,inactive: 8.6%,–
Fc1cccc(NCc2ccccc2-c2nnc(-c3ccccc3Cl)o2)c1,inactive: -3.63%,–
Cc1ccc(-n2c3c(c(=O)[nH]c2=O)C(NS(=O)(=O)c2ccc(Cl)cc2)(C(F)(F)F)C(=O)N3)cc1 (stereo not drawn),inactive: -0.109%,–
COc1cccc2c1cc1c(=O)n(CC(=O)N3CCCCC3)nc(C)n12,inactive: 2.6%,–
Cc1ccc(C(=O)Nc2ccc(C(=O)O)cc2)cc1S(=O)(=O)Nc1ccccc1,inactive: -14.3%,–
